# Out of some 3,200 compounds screened, about 75 (2%) showed an effect of 50% or more. The list shows a part of the results.
# Test system: T1, S. aureus MSSA476
# T1 construct: MSSA476
# Set-up: species or system S. aureus MSSA476 (TSB) or V. cholerae SAD30 (LB); 384-well bacterial growth screen at 25 uM, OD600 relative to DMSO control
# Conditions: relative growth, OD600, TSB; 25 µM; inhibitor
row,Compound,% of control remaining [%]
1,"C=CC(=O)Nc1cnn(C2CCCC2)c1 [3-O21, N-(1-cyclopentyl-1H-pyrazol-4-yl)prop-2-enamide]",87.4184
2,"CCCn1c(C)cc(C=C(C#N)C(=O)Nc2ccccc2)c1C [8-H05, 2-cyano-3-(2,5-dimethyl-1-propyl-1H-pyrrol-3-yl)-N-phenylprop-2-enamide]",108.216
3,"N#CC(=Cc1cccc(F)c1F)C(N)=O [9-A03, 2-cyano-3-(2,3-difluorophenyl)prop-2-enamide]",107.865
4,"CC(Cl)C(=O)NC(CC1CCCCC1)c1ncccn1 (stereo not shown) [7-H13, 2-chloro-N-[2-cyclohexyl-1-(pyrimidin-2-yl)ethyl]propanamide]",99.2151
5,"C=CC(=O)N1CCC(C(=O)N[C@H]2CCO[C@H](c3ccccn3)C2)CC1 (racemic) [2-G15, rac-1-(prop-2-enoyl)-N-[(2R,4R)-2-(pyridin-2-yl)oxan-4-yl]piperidine-4-carboxamide]",110.357
6,"COc1ccc(CN2CCN(C(=O)CCl)CC2)cc1.Cl [5-A15, 2-chloro-1-{4-[(4-methoxyphenyl)methyl]piperazin-1-yl}ethan-1-one hydrochloride]",98.725
7,"Cn1ccnc1C(=O)CCl [10-C15, 2-chloro-1-(1-methyl-1H-imidazol-2-yl)ethan-1-one]",93.75
8,"C=CC(=O)NC(c1ccc(F)cc1)c1nccn1C (stereo not shown) [2-N09, N-[(4-fluorophenyl)(1-methyl-1H-imidazol-2-yl)methyl]prop-2-enamide]",98.1723
9,"C=CC(=O)NCCCc1conc1C [2-N13, N-[3-(3-methyl-1,2-oxazol-4-yl)propyl]prop-2-enamide]",106.179
10,"CC1=C(c2ccco2)CN(C(=O)C(C)Cl)CC1 (stereo not shown) [6-D15, 2-chloro-1-[5-(furan-2-yl)-4-methyl-1,2,3,6-tetrahydropyridin-1-yl]propan-1-one]",87.4146
11,"C=CC(=O)NCc1cccc(C(C)(F)F)c1 [3-O22, N-{[3-(1,1-difluoroethyl)phenyl]methyl}prop-2-enamide]",99.6082
12,"NC(=O)CSc1ccccc1NC(=O)CCl [4-A15, 2-{[2-(2-chloroacetamido)phenyl]sulfanyl}acetamide]",128.442
13,"Cc1ccc(-n2c(C)cc(C=C(C#N)C(=O)N3CCCCC3)c2C)cc1 [9-O21, 3-[2,5-dimethyl-1-(4-methylphenyl)-1H-pyrrol-3-yl]-2-(piperidine-1-carbonyl)prop-2-enenitrile]",96.779
14,"O=C(CCl)NCCc1ccn(C2CCCC2)n1 [7-L20, 2-chloro-N-[2-(1-cyclopentyl-1H-pyrazol-3-yl)ethyl]acetamide]",86.9702
15,"C=CC(=O)N1CCN(C(C)c2nc(C)no2)CC1 (stereo not shown) [3-M11, 1-{4-[1-(3-methyl-1,2,4-oxadiazol-5-yl)ethyl]piperazin-1-yl}prop-2-en-1-one]",105.877
16,"N#CC(=Cc1ccc([N+](=O)[O-])cc1)C(=O)Nc1cccc2ncccc12 [9-K21, 2-cyano-3-(4-nitrophenyl)-N-(quinolin-5-yl)prop-2-enamide]",92.8839
17,"CN(C(=O)CCl)C(c1ccccc1)c1ccccc1 [5-H06, 2-chloro-N-(diphenylmethyl)-N-methylacetamide]",85.6102
18,"CC(Cl)C(=O)Nc1ccccc1-c1ccccc1 (stereo not shown) [4-G14, N-{[1,1'-biphenyl]-2-yl}-2-chloropropanamide]",133.016
19,"C=CC(=O)NCCc1cscn1 [2-G08, N-[2-(1,3-thiazol-4-yl)ethyl]prop-2-enamide]",88.0766
20,"c1nc(N2CCSSCC2)c2c3c(sc2n1)CCCC3 [10-M22, 3-(1,2,5-dithiazepan-5-yl)-8-thia-4,6-diazatricyclo[7.4.0.0,2,7]trideca-1(9),2,4,6-tetraene]",155.938
21,"CCN(CC)S(=O)(=O)c1ccc(Cl)c(NC(=O)C(C)Cl)c1 (stereo not shown) [6-C20, 2-chloro-N-[2-chloro-5-(diethylsulfamoyl)phenyl]propanamide]",105.512
22,"CC(Cc1c[nH]c2cc(F)c(F)cc12)NC(=O)CCl (stereo not shown) [5-I07, 2-chloro-N-[1-(5,6-difluoro-1H-indol-3-yl)propan-2-yl]acetamide]",83.7887
23,"C=CC(=O)Nc1ccc(C(N)=O)cc1C [1-P06, 3-methyl-4-(prop-2-enamido)benzamide]",92.1319

row,Compound,% of control remaining [%]
1,"CC(Cl)C(=O)N1CCCCC1C1CCCN(C(=O)C(F)(F)F)C1 (stereo not shown) [6-F16, 2-chloro-1-[1'-(2,2,2-trifluoroacetyl)-[2,3'-bipiperidin]-1-yl]propan-1-one]",96.2927
2,"O=C(CCl)C1CC12CCCCC2 (stereo not shown) [10-A19, 2-chloro-1-{spiro[2.5]octan-1-yl}ethan-1-one]",138.75
3,"O=C(CCl)Nc1cc(S(=O)(=O)N2CCCCC2)ccc1Cl [4-F09, 2-chloro-N-[2-chloro-5-(piperidine-1-sulfonyl)phenyl]acetamide]",124.631
4,"Cc1ccc(C=C(C#N)C(=O)NCCc2ccccc2)o1 [8-H12, 2-cyano-3-(5-methylfuran-2-yl)-N-(2-phenylethyl)prop-2-enamide]",99.2531
5,"O=C(CCl)N1CCN(C(=O)CC(F)(F)F)CC1 [5-A08, 1-[4-(2-chloroacetyl)piperazin-1-yl]-3,3,3-trifluoropropan-1-one]",113.297
6,"Cc1ccc(F)c(N2CCC(NC(=O)CCl)CC2)c1 [5-M14, 2-chloro-N-[1-(2-fluoro-5-methylphenyl)piperidin-4-yl]acetamide]",67.3953
7,"C=CC(=O)N1CCC(C(=O)NC(C)(C)CSC)CC1 [3-M14, N-[2-methyl-1-(methylsulfanyl)propan-2-yl]-1-(prop-2-enoyl)piperidine-4-carboxamide]",90.9012
8,"C=CC(=O)NC1(c2ccccc2)CCOC1 (stereo not shown) [3-P04, N-(3-phenyloxolan-3-yl)prop-2-enamide]",87.0701
9,"CCN(CC)S(=O)(=O)c1cc(NC(=O)CCl)ccc1C [4-E09, 2-chloro-N-[3-(diethylsulfamoyl)-4-methylphenyl]acetamide]",102.525
10,"CC1CSc2ccc(Cl)cc2N(C(=O)CCl)C1 (stereo not shown) [5-J05, 2-chloro-1-(7-chloro-3-methyl-2,3,4,5-tetrahydro-1,5-benzothiazepin-5-yl)ethan-1-one]",95.4463
11,"CSc1nsc(NC(=O)CCl)n1 [4-C13, 2-chloro-N-[3-(methylsulfanyl)-1,2,4-thiadiazol-5-yl]acetamide]",101
12,"CCN(Cc1ccc(C(F)(F)F)cc1)C(=O)CCl [7-H20, 2-chloro-N-ethyl-N-{[4-(trifluoromethyl)phenyl]methyl}acetamide]",141.915
13,"C=CC(=O)N1CCC(C(=O)NCc2cnn(-c3ccccc3)c2)CC1 [3-O14, N-[(1-phenyl-1H-pyrazol-4-yl)methyl]-1-(prop-2-enoyl)piperidine-4-carboxamide]",81.8459
14,"COc1ccc(NC(=O)CCl)cc1S(=O)(=O)N1CCCCC1 [4-B08, 2-chloro-N-[4-methoxy-3-(piperidine-1-sulfonyl)phenyl]acetamide]",103.287
15,"C=CC(=O)NC(Cn1ccccc1=O)c1ccccc1 (stereo not shown) [2-B21, N-[2-(2-oxo-1,2-dihydropyridin-1-yl)-1-phenylethyl]prop-2-enamide]",144.822
16,"C=CC(=O)N1CCC(C(=O)N(C)C(C)Cc2ccc(C)cc2)CC1 (stereo not shown) [2-F14, N-methyl-N-[1-(4-methylphenyl)propan-2-yl]-1-(prop-2-enoyl)piperidine-4-carboxamide]",119.06
17,"C=CC(=O)N1CCc2cc(C(N)=O)ccc21 [1-P03, 1-(prop-2-enoyl)-2,3-dihydro-1H-indole-5-carboxamide]",97.0549
18,"Cc1cc(C(=O)C(C)Cl)c(C)n1-c1ccccc1 (stereo not shown) [10-A06, 2-chloro-1-(2,5-dimethyl-1-phenyl-1H-pyrrol-3-yl)propan-1-one]",94.6875
19,"COc1ccc(NC(=O)C(C#N)=Cc2ccc(-c3ccccc3)cc2)cc1 [8-D11, 3-{[1,1'-biphenyl]-4-yl}-2-cyano-N-(4-methoxyphenyl)prop-2-enamide]",96.2656
20,"O=C(CCl)NCCc1cnn(-c2ccccc2)c1 [6-G22, 2-chloro-N-[2-(1-phenyl-1H-pyrazol-4-yl)ethyl]acetamide]",95.9512
21,"CC(C)(C)c1ccc(CC(=O)CCl)cc1 [10-G19, 1-(4-tert-butylphenyl)-3-chloropropan-2-one]",132.5
22,"CCOc1ccc(NC(=O)CCl)cc1S(=O)(=O)N1CCCC1 [4-J16, 2-chloro-N-[4-ethoxy-3-(pyrrolidine-1-sulfonyl)phenyl]acetamide]",139.876
23,"CCS(=O)(=O)N1CCc2cc(C(=O)CCl)ccc21 [10-E18, 2-chloro-1-[1-(ethanesulfonyl)-2,3-dihydro-1H-indol-5-yl]ethan-1-one]",0.3125

# Reference: publication PMC11995724, “Antibiotic target discovery by integrated phenotypic and activity-based profiling of electrophilic fragments” (Cell chemical biology, 2025)
